According to PubChem BioAssay AID1454 (National Center for Advancing Translational Sciences (NCATS), 2008):
In all, about 130,000 compounds went through this assay and about 550 (0.42%) were called active. Inconclusive means that the source gave no clear call. Such entries were picked first, then a sample of the others. The call rests on the fitted dose curve; in most records, active means well fitted inhibition curve with a large enough effect; inconclusive means small, poorly fitted or top-dose-only effect, or effect the other way; inactive means flat fitted curve, though single readings scatter. Potencies of inconclusive entries are left out as doubtful fits.

Assay: qHTS Assay for Inhibitors of the ERK Signaling Pathway using a Homogeneous Screening Assay; Stimulation with EGF; further: nearly all actives have a fitted effect of over 55% in size
Details: HEK293-V1b, EGF-stimulated phospho-ERK AlphaScreen
Summary of the method: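 In this qHTS, HEK293 cells with stable type-1 vasopressin (V1b) receptor were exposed to compound at 37C for 30 min, stimulated 5 min with EGF at 25 nM, lysed, and probed for phospho-ERK by AlphaScreen.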
Potency means the concentration at half of the fitted maximal effect; tags describe the fitted curve by direction and shape.

**Q.** Which Potency does the source give for CN1CCN(c2ccccc2NC(=O)c2ccc(N3CCCCC3)c([N+](=O)[O-])c2)CC1 here?
**A.** The Potency was inconclusive [inhibitor, partial curve, poor fit].

**Q.** With CSCCC(NC(=O)c1ccco1)C(=O)OCc1cc([N+](=O)[O-])cc2c1OCOC2 (stereo unspecified) as the compound, how does the Potency read?
**A.** The Potency was inconclusive [inhibitor, single point].

**Q.** With CCOC(=O)c1nc2c(ccc3ccccc32)cc1C as the compound, how does the Potency read?
**A.** The Potency was inconclusive [inhibitor, partial curve, poor fit].

**Q.** For CCc1cccc(N=c2c([N+](=O)[O-])nn(-c3ccc4c(c3)OCCO4)n2O)c1, which Potency is on record?
**A.** The Potency was inconclusive [inhibitor, single point].

**Q.** With COC(=O)C1=NN(C(=O)c2cccc(Br)c2)C(O)(c2ccc(Cl)cc2)C1 (stereo unspecified) as the compound, how does the Potency read?
**A.** Its Potency is inconclusive [inhibitor, single point].

**Q.** For Cc1cc([N+](=O)[O-])c2c(c1C)C1C=CCC1C(c1ccccn1)N2 (stereo unspecified), which Potency is on record?
**A.** The Potency was inconclusive [inhibitor, partial curve].

**Q.** For Cc1cc(N/N=C/c2ccc([N+](=O)[O-])o2)nc2ccccc12, which Potency is on record?
**A.** The Potency was inconclusive [inhibitor, partial curve].

**Q.** For Cc1ccc2c(CN3CCN(Cc4ccc5c(c4)OCO5)CC3)cc(=O)oc2c1C, which Potency is on record?
**A.** The Potency was inconclusive [inhibitor, single point].

**Q.** For CCNc1ccc2noc3c2c1C(=O)c1ccccc1-3, which Potency is on record?
**A.** The Potency was inconclusive [inhibitor, partial curve].

**Q.** Which Potency does the source give for CNc1ncc(C(=O)c2ccc(-c3ccccc3)cc2)s1 here?
**A.** The Potency was “inactive”.

**Q.** For CN(C)c1ccc(C(=O)N/N=C/c2cc(Br)cc(Br)c2O)cc1, which Potency is on record?
**A.** Its Potency is inconclusive [inhibitor, single point].

**Q.** Which Potency does the source give for CC(C)(C)CC(C)(C)NC(=S)NC1CCN(Cc2ccccc2)CC1 here?
**A.** The Potency was inconclusive [inhibitor, single point].

**Q.** With c1ccc2c(c1)Nc1cc3ccccc3cc1S2 as the compound, how does the Potency read?
**A.** The Potency was inconclusive [inhibitor, full curve, poor fit].

**Q.** For CCCN1C(=S)SC(C)(C)C1/[N+]([O-])=C/c1ccc(S(=O)(=O)NC)cc1 (stereo unspecified), which Potency is on record?
**A.** Its Potency is inconclusive [activator, partial curve, poor fit].

**Q.** Which Potency does the source give for S=C(NCc1ccc2c(c1)OCO2)Nc1ccc(-c2nc3ccccc3[nH]2)cc1 here?
**A.** The Potency was inconclusive [inhibitor, single point].

**Q.** With CCN(CC)CCCn1c(-c2ccccc2)nc2c(NCCOC)nc(C)nc21 as the compound, how does the Potency read?
**A.** The Potency was “inactive”.

**Q.** With O=C(NC(=S)Nc1ccc(N2CCCCC2)cc1)c1ccc2c(c1)OCCO2 as the compound, how does the Potency read?
**A.** Its Potency is inconclusive [inhibitor, partial curve].

**Q.** For CC(=O)OC[C@H]1O[C@@H](O/N=C/[C@@H](C)[C@H](OCc2ccccc2)C(C)C)[C@H](OC(C)=O)[C@@H](OC(C)=O)[C@@H]1OC(C)=O, which Potency is on record?
**A.** Its Potency is inconclusive [inhibitor, partial curve].

**Q.** For C/C=C/C1=Cc2ccccc2C(C(C(=O)OC)C(=O)OC)N1C(=O)OC (stereo unspecified), which Potency is on record?
**A.** Its Potency is “inactive”.

**Q.** For COc1cccc(CNc2ncnc3cc(Cl)ccc23)c1, which Potency is on record?
**A.** The Potency was inconclusive [inhibitor, partial curve].

**Q.** Which Potency does the source give for Cn1cccc1/C=N/NC(=O)CNc1cccc2ccccc12 here?
**A.** The Potency was inconclusive [inhibitor, single point].

**Q.** For Cn1cc(-c2nc3cnc(Oc4ccccc4)nc3n(CCC#N)c2=O)c2ccccc21, which Potency is on record?
**A.** Its Potency is “inactive”.

**Q.** Which Potency does the source give for COc1cccc(-c2nc(-c3cccs3)no2)c1 here?
**A.** Its Potency is inconclusive [inhibitor, single point].

**Q.** Which Potency does the source give for CN(C)c1ccc(NC(=O)c2cccc(C(=O)Nc3ccc(N(C)C)cc3)n2)cc1 here?
**A.** The Potency was inconclusive [inhibitor, partial curve].

**Q.** Which Potency does the source give for CCCCn1c(=O)[nH]c2nc3cc(NC(C)=O)ccc3nc2c1=O here?
**A.** The Potency was “inactive”.

**Q.** Which Potency does the source give for CCN1CCCC1Cn1c(-c2ccccc2)nc2c(NCCOC)nc(C)nc21 (stereo unspecified) here?
**A.** The Potency was “inactive”.

**Q.** With CN(C)CCCN(C(=O)c1ccco1)c1nc2ccc(Br)cc2s1 as the compound, how does the Potency read?
**A.** The Potency was inconclusive [inhibitor, single point].

**Q.** With Cc1cccc2c1N(CCOc1ccccc1)C(=O)C2=O as the compound, how does the Potency read?
**A.** The Potency was inconclusive [inhibitor, single point].

**Q.** With COc1cccc(-c2nnc(NC(=O)c3ccc(Cl)s3)o2)c1 as the compound, how does the Potency read?
**A.** The Potency was inconclusive [inhibitor, partial curve].

**Q.** Which Potency does the source give for CNC(=O)c1ccsc1NC(=O)c1sc2ccccc2c1Cl here?
**A.** Its Potency is inconclusive [inhibitor, single point].

**Q.** With N#C/C(=C\C=C\c1ccccc1[N+](=O)[O-])C(=O)NC1CCCCC1 as the compound, how does the Potency read?
**A.** The Potency was inconclusive [inhibitor, single point].

**Q.** Which Potency does the source give for O=C1/C(=C\c2ccsc2)NC(=S)N1c1ccccc1 here?
**A.** The Potency was inconclusive [inhibitor, single point].

**Q.** For Cc1ccc(-c2cc(C(F)F)nc(NCc3cccs3)n2)cc1, which Potency is on record?
**A.** The Potency was “inactive”.

**Q.** Which Potency does the source give for COc1ccc2cc(C(C)CO)ccc2c1 (stereo unspecified) here?
**A.** Its Potency is “inactive”.

**Q.** With O=C(NNc1nc(-c2ccccc2)cs1)c1cccs1 as the compound, how does the Potency read?
**A.** Its Potency is inconclusive [inhibitor, partial curve].

**Q.** Which Potency does the source give for O=[N+]([O-])c1cc(C2Nc3cccc4cccc(c34)N2)ccc1Cl here?
**A.** The Potency was inconclusive [inhibitor, single point].

**Q.** Which Potency does the source give for Cc1ccc(N(Cc2ccco2)C(=O)c2ccc(N3CCCCC3)c([N+](=O)[O-])c2)cc1 here?
**A.** Its Potency is inconclusive [inhibitor, single point].

**Q.** With CN(C)CCCNc1nc(-c2ccccc2)nc2ccccc12 as the compound, how does the Potency read?
**A.** Its Potency is inconclusive [activator, partial curve, poor fit].

**Q.** With COc1cccc(NC(=O)N2CCCc3ccccc32)c1 as the compound, how does the Potency read?
**A.** Its Potency is inconclusive [activator, full curve].

**Q.** For CC(=O)N(Cc1cccs1)Cc1cc2cc(C)c(C)cc2nc1Cl, which Potency is on record?
**A.** The Potency was inconclusive [inhibitor, full curve, poor fit].

**Q.** With CC(C)CCNC(=O)Cc1ccc(Nc2nc(=S)[nH]c3ccccc23)cc1 as the compound, how does the Potency read?
**A.** The Potency was inconclusive [inhibitor, single point].

**Q.** With O=C(Nc1ccc(Oc2cccc(C(F)(F)F)c2)nc1)c1cccs1 as the compound, how does the Potency read?
**A.** Its Potency is inconclusive [inhibitor, single point].

**Q.** For Cc1cc(C)nc(S/C=C/C(=O)c2ccccc2)n1, which Potency is on record?
**A.** Its Potency is active: 22.4 µM.

**Q.** With Cc1cccn2c(=O)c(/C=C3\SC(=S)NC3=O)c(NCCCN3CCOCC3)nc12 as the compound, how does the Potency read?
**A.** The Potency was inconclusive [inhibitor, single point].

**Q.** Which Potency does the source give for CC1(C)C(=O)OC(c2cccn2-c2cccc([N+](=O)[O-])c2)C2(CCCCC2)C1=O (stereo unspecified) here?
**A.** The Potency was inconclusive [inhibitor, partial curve].

**Q.** Which Potency does the source give for CCCCCOC(=O)CC(C(=O)OCCCCC)N1CCCCC1 (stereo unspecified) here?
**A.** The Potency was inconclusive [activator, single point].

**Q.** With COc1ccc(CN2C(=O)CS/C2=N/N=C/c2ccccc2)cc1 as the compound, how does the Potency read?
**A.** Its Potency is inconclusive [inhibitor, single point].

**Q.** With COc1ccc(-c2ccc(N(C)C)cc2)cc1[C@H]1[C@@H]2C=CCC[C@@]2(C)C(=O)N1Cc1ccccc1 as the compound, how does the Potency read?
**A.** The Potency was inconclusive [inhibitor, partial curve].

**Q.** For COc1cc(C(=O)OC2CSCC2NC(=O)c2ccccc2)cc(OC)c1OC (stereo unspecified), which Potency is on record?
**A.** Its Potency is “inactive”.

**Q.** With O=[N+]([O-])c1ccccc1/C=C/C=N/n1c(-c2ccccc2)n[nH]c1=S as the compound, how does the Potency read?
**A.** The Potency was “inactive”.

**Q.** With Cc1ccc2nc(-c3ccncc3)cc(C(=O)NCCc3ccc(F)cc3)c2c1 as the compound, how does the Potency read?
**A.** Its Potency is inconclusive [inhibitor, partial curve].

**Q.** Which Potency does the source give for COc1cccc(/C=C2\SC(=S)N(CC3CCCO3)C2=O)c1 (stereo unspecified) here?
**A.** The Potency was inconclusive [inhibitor, single point].

**Q.** Which Potency does the source give for CCOC(=O)c1ccc(-c2ccc(C3Nc4ccccc4C(=O)N3O)o2)cc1 (stereo unspecified) here?
**A.** The Potency was inconclusive [inhibitor, single point].

**Q.** For COc1ccc(CCn2c(NN)nc3c2c(=O)[nH]c(=O)n3C)cc1, which Potency is on record?
**A.** The Potency was inconclusive [inhibitor, single point].

**Q.** With CC(=O)N1CCC2(CC1)CCN(c1ccc(-c3ccccc3)cc1)CC2 as the compound, how does the Potency read?
**A.** The Potency was inconclusive [inhibitor, single point].

**Q.** For CN(C)S(=O)(=O)Oc1ccc(Cl)cc1C(=O)Nc1ccc(F)cc1F, which Potency is on record?
**A.** The Potency was inconclusive [inhibitor, single point].

**Q.** With CN1CCN(Cc2nc3ccccc3c(=O)n2Cc2nc(-c3ccc4ccccc4c3)cs2)CC1 as the compound, how does the Potency read?
**A.** Its Potency is inconclusive [inhibitor, single point].

**Q.** For C=CCN1C(=O)/C(=C/C=C2/N(CC)c3ccc(S(=O)(=O)N(C)C)cc3N2CC)SC1=S, which Potency is on record?
**A.** The Potency was inconclusive [inhibitor, partial curve].

**Q.** For CCNC(=O)COC(=O)c1cccc(Br)c1, which Potency is on record?
**A.** Its Potency is inconclusive [inhibitor, partial curve].

**Q.** With O=C(c1ccco1)N1CCC[C@@]2(CCN(C(c3ccccc3)c3ccccc3)C2)C1 as the compound, how does the Potency read?
**A.** Its Potency is “inactive”.

**Q.** With COC1OC2COC(c3ccccc3)OC2C(O)C1O (stereo unspecified) as the compound, how does the Potency read?
**A.** Its Potency is “inactive”.

**Q.** For Cc1ccccc1C(=O)Nc1cccc(-c2cn3ccccc3n2)c1, which Potency is on record?
**A.** The Potency was inconclusive [inhibitor, full curve, poor fit].

**Q.** For O=C(N/N=C/c1ccc(-c2ccccc2Cl)o1)c1ccccc1, which Potency is on record?
**A.** Its Potency is inconclusive [inhibitor, single point].

**Q.** For O=C(Nc1nc2cc3c(cc2s1)OCCO3)c1cccs1, which Potency is on record?
**A.** Its Potency is inconclusive [inhibitor, single point].

**Q.** Which Potency does the source give for [N-]=[N+]=Nc1nc2c(N)ncnc2n1C1OC(CO)C(O)C1O (stereo unspecified) here?
**A.** The Potency was “inactive”.

**Q.** With Cc1cc(/C=C2/NC(=O)NC2=O)c(C)n1-c1ccc(C#N)cc1 as the compound, how does the Potency read?
**A.** Its Potency is inconclusive [inhibitor, full curve, poor fit].
